Measured values reported in patent US20230346949A1, “A METHOD OF FORMING A CONJUGATE OF A SULFONAMIDE AND A POLYPEPTIDE” (SANOFI, priority 2019, published 2023).

Target: human insulin receptor isoform B (human)
Test: cell-based or functional assay

Autophosphorylation activity (relative to human insulin): 0.11
B1: Glu(A14)His(B16)Ala(B25)Des(B30)-Insulin (ligand)
chain 1: not shown
chain 2: FVNQHLCGSHLVEALHLVCGERGFAYTPK
